# Among all 45,000 compounds or so, about 200 (0.44%) were called active. Roughly 7% stayed inconclusive and do not appear here. Calls come from the whole dose curve; as a rule, active = well fitted activation curve with a large enough effect; inconclusive = small, poorly fitted or top-dose-only effect; inactive = no such curve, though single readings can be large or run the other way. The list shows a part of the results.
# Experiment: qHTS of TDP-43 Inhibitors: NCGC Sytravon Library Screen; note: 0% is about no effect; nearly all actives have a fitted effect of over 55% in size
# Settings: yeast TDP-43 toxicity rescue, BacTiter-Glo growth, 24 h; series mostly up to 46.1 µM; growth rescue (activation): at the top concentration
# How it was run: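 TDP-43-expressing yeast, pregrown in raffinose, seeded at OD600 0.02 in galactose medium with compound for 24 hr at 30 deg C. Growth read by BacTiter-Glo luminescence, so rescue of toxicity appears as activation.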
row,SMILES,growth rescue (activation)
1,CNC(=O)Cn1nc(-c2ccc(C)cc2)c2ccccc2c1=O,inactive: -1.22%
2,CCCS(=O)(=O)N1CCCC(C(=O)NCCN(CC)c2ccccc2)C1 (stereo unspecified),inactive: -3.46%
3,CC1(NC(=O)Nc2cccc(Br)c2)CCS(=O)(=O)C1 (stereo unspecified),inactive: 19.4%
4,Cc1cc(Nc2ccc(Cl)cc2)nc(NCc2ccccc2)n1,inactive: 11.2%
5,Cc1cnc(C(=O)OCC(=O)N(Cc2ccccc2)C(C)(C)C)cn1,inactive: 24.2%
6,Cc1ccc(N(C(=O)c2csnn2)C(C(=O)NCc2ccccc2)c2cccnc2)cc1 (stereo unspecified),inactive: -25.1%
7,COCCn1c(C)cc(C(=O)COC(=O)c2cncc(Br)c2)c1C,inactive: 17.8%
8,CC(=O)Nc1ccc(N(C(=O)Cn2nnc3ccccc32)C(C(=O)NC2CCCC2)c2ccc(O)c(O)c2)cc1 (stereo unspecified),inactive: -7.15%
9,CCCCN(C)C(=O)c1ccc(Nc2nc(C(N)CCc3ccccc3)cs2)nc1 (stereo unspecified),inactive: -0.635%
10,COc1cc2c(cc1NC(=S)Nc1cccc3ccccc13)oc1ccccc12,inactive: 25.4%
11,CC1=CCC(C(=O)O)C(C(=O)Nc2ccc(-c3nc4ccc(C)cc4s3)cc2)C1 (stereo unspecified),inactive: 16.7%
12,CNC(=S)NNc1nc(N2CCOCC2)nc(N2CCOCC2)n1,inactive: 10.8%
13,COC(=O)c1cccc(C(=O)N2CCCC(C(=O)c3cc(F)ccc3F)C2)c1 (stereo unspecified),inactive: 27.6%
14,NC(=O)c1ccccc1NC(=O)CSc1cn[nH]n1,inactive: 11.1%
15,CCC1C/C(=C\c2cccnc2)C(=O)/C(=C/c2cccnc2)C1 (stereo unspecified),inactive: -81.2%
16,CCN1CCN(CCNC(=O)c2ccc3c(c2)N(Cc2ccc(F)cc2)C(=O)/C(=C/c2ccccc2)S3)CC1,inactive: -59.6%
17,Cc1ccc(N(C(=O)CS(=O)CC(=O)Nc2ccc(F)cc2)C(C(=O)NC2CCCCC2)c2ccco2)cc1 (stereo unspecified),inactive: 10%
18,C/C(=N\NC(=O)OC(C)(C)C)c1ccc(-n2ccnc2)cc1,inactive: 8.63%
19,COc1ccc(/C=N/NS(=O)(=O)c2ccc(NC(C)=O)cc2)cc1,inactive: 28.9%
20,Cc1cc(C)c(NC(=O)COC(=O)CCc2ccc(S(=O)(=O)N3CCCCC3)cc2)c(C)c1,inactive: -3.28%
21,O=C(Nc1ccc(N2CCOCC2)cc1)C1(c2ccc(Cl)cc2)CCC1,inactive: 2%
22,O=C(COC(=O)C12CC3CC(CC(Br)(C3)C1)C2)Nc1cccc(S(=O)(=O)N2CCOCC2)c1,inactive: 7.62%

row,SMILES,growth rescue (activation)
1,O=C(Nc1ccc(Cl)c(S(=O)(=O)N2CCOCC2)c1)C1=NN(c2ccccc2)C(=O)CC1,inactive: -6.8%
2,COc1ccc(C(=O)OCc2nc(N)nc(Nc3ccccc3C)n2)cc1OC,inactive: -4.91%
3,COc1ccc(C(=O)Oc2ccc3ccc(=O)oc3c2)cc1OC,inactive: -8.69%
4,Cc1cccc(NC(=S)N2CCC(NC(=O)c3ccco3)CC2)c1,inactive: 4.55%
5,Cn1cnnc1SCC(=O)c1ccc(O)c(O)c1,inactive: 2.22%
6,CCCCn1c(N)c(S(=O)(=O)c2ccc(C)cc2)c2nc3ccccc3nc21,inactive: 9.29%
7,CC(C)(C)c1ccc(C(=S)N2CCN(c3ccccc3)CC2)cc1,inactive: 36.5%
8,O=C(Nc1nnc(Cc2ccc(Cl)cc2)s1)C1CCCO1 (stereo unspecified),inactive: 2.18%
9,CCOc1ccc(S(=O)(=O)N(CC)CC(=O)NCc2ccncc2)cc1C,inactive: -0.498%
10,Cc1cnc(NC(=O)c2cc3ccccc3o2)s1,inactive: 6.77%
11,Cc1cccc(NC(=O)C2CCCN(S(=O)(=O)c3cccs3)C2)c1C (stereo unspecified),inactive: 5.11%
12,O=C(Nc1ccc2c(c1)OCO2)C1CCCN1C(=O)Nc1cccc(F)c1 (stereo unspecified),inactive: 27.5%
13,O=C(Nc1ccc(C(=O)O)cc1)/C(=C\c1ccco1)NC(=O)c1ccco1,inactive: -8.39%
14,CC(C)(C)OC(=O)NNC(=O)c1cccs1,inactive: -3.54%
15,O=C(Cc1ccc(F)cc1)N1CCC(N2CCC(C(=O)N3CCOCC3)CC2)CC1,inactive: -11%
16,Cc1nc2ccc(Br)cc2c(-c2ccccc2)c1C(=O)O,inactive: 16.4%
17,C=CCn1c(C)cc(C(=O)COC(=O)c2n[nH]c(=O)c3ccccc23)c1C,inactive: 1.37%
18,CCCNC(=O)C1(C)CCCN(Cc2ccc3ccccc3c2)C1 (stereo unspecified),inactive: 9.74%
19,CCS(=O)(=O)N1CCN(S(=O)(=O)c2ccc(S(=O)(=O)NC3CC3)cc2)CC1,inactive: 4.87%
20,CCN1C(=O)Cc2cc(S(=O)(=O)NCCc3ccccc3)ccc21,inactive: 14.6%
21,CC(C)(C)NC(=O)CSc1nc(N)cc(=O)[nH]1,inactive: 11.1%
22,Cn1c(CCC(=O)OCC(=O)NCC(F)(F)F)nc(=O)c2ccccc21,inactive: 2.49%

row,SMILES,growth rescue (activation)
1,CC(C)OP(=O)(OC(C)C)C(O)c1cccc([N+](=O)[O-])c1 (stereo unspecified),inactive: 1.09%
2,Cc1c(S(=O)(=O)N2CCCC(C(=O)O)C2)cnn1C (stereo unspecified),inactive: -6.7%
3,CC(=O)c1ccc(NC(=S)NCCc2ccccn2)cc1,inactive: 9.58%
4,Cc1ccccc1-n1c(SCC(=O)NCC2CCCO2)nnc1-c1ccncc1 (stereo unspecified),inactive: 10.7%
5,O=C(Nc1ccc(S(=O)(=O)N2CCOCC2)cc1)c1ccc2c(c1)OCO2,inactive: 11.7%
6,COc1ccc(CN(C)C(=O)COC(=O)c2cnc(Cl)c(Cl)c2)cc1,inactive: 16.4%
7,CC(C)(C)NC(=S)NNC(=O)[C@H]1C[C@@H]1c1ccccc1,inactive: -8.55%
8,CC1(C)OC2CC3C4CC(F)C5=CC(=O)C=CC5(C)C4(F)C(O)CC3(C)C2(C(=O)CO)O1 (stereo unspecified),inactive: 3.9%
9,O=C(C[n+]1cccc(NC(=O)c2ccccc2)c1)c1cccc([N+](=O)[O-])c1,inactive: -3.54%
10,C=CCn1cccc(C(=O)Nc2ccc(OC)cc2)c1=O,inactive: 2.48%
11,COCC1CCCN(Cc2cn(-c3ccccc3)nc2-c2ccc3c(c2)OCO3)C1 (stereo unspecified),inactive: -3.25%
12,CCOc1ccccc1CN1CCN(Cc2ccon2)CC1CCO (stereo unspecified),inactive: 3.11%
13,Cc1nnc(N/N=C/c2ccc(O)c([N+](=O)[O-])c2)[nH]c1=O,inactive: 6.62%
14,CC(C)NC(=O)CC(=O)N/N=C/c1c(F)cccc1Cl,inactive: 11.4%
15,COc1ccc(CCN2CC(C(=O)N3CCC(OC)CC3)CCC2=O)cc1 (stereo unspecified),inactive: 11.6%
16,CCc1nc2ccc(C(=O)Nc3ccc(NC(C)=O)cc3)cn2c1N(C)CCCc1ccccc1,inactive: -1.36%
17,COc1ccc(S(=O)(=O)N2CCN(C(=O)NCc3ccc(OC)c(OC)c3)CC2)cc1,inactive: 5.2%
18,COc1ccc(C2C(C#N)=C(N)OC(C(C)(C)C)=C2C#N)cc1OC (stereo unspecified),inactive: -21.2%
19,Cc1cccn2c(CNCC3(c4ccccc4)CCCC3)c(C(=O)N3CCOCC3)nc12,inactive: -1.49%
20,C=CCOn1c(=O)c(-c2ccc(Br)cc2)[n+]([O-])c2ccccc21,inactive: -7.89%
21,CCn1cc(C(=O)NCCCN2CCCC(C)C2)c(=O)c2cc(S(=O)(=O)N3CCc4ccccc4C3)ccc21 (stereo unspecified),inactive: 11.9%
22,CCOC(=O)c1ccc(N/C=C/C(=O)C(C)(C)C)cc1,inactive: -5.26%

# Source: PubChem BioAssay AID1347073 (National Center for Advancing Translational Sciences (NCATS), 2019)
